Assay results reported in the supplement of paper PMC11417369.
Some of the results follow.

The sequences below were run on PfSIP2 AP2 domain 1 (GST-tagged) (assay: gcPBM binding intensity (ln(normalized median fluorescence intensity)); higher = stronger DNA binding).
How it was run: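 The binding buffer was 1× PBS containing 1% milk, 0.2 mg/ml BSA, 0.5% salmon testes DNA and 0.03% Triton X-100. In it, GST-tagged P. falciparum DNA-binding domains expressed in E. coli were applied for 1 h to an Agilent 4 × 180k array of primer-extended double-stranded 36-bp intergenic genomic probes plus negative controls. Binding intensity, read with Alexa488 anti-GST antibody and a 488 nm scan, is the highest Masliner-normalised natural-log median intensity across replicate spots of either probe orientation.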
For “AATAAATTTAGACACACACACACATATAAATAAATA [CACACA_site6531]”, the “gcPBM binding intensity (ln)” value was 7.17. For “TATACGTGAATGACAGTGCATTTCAAAAGTATAAAA [GTGCAC_site9887]”, the “gcPBM binding intensity (ln)” value was 8.47. “TTTGGGTATACACATACATGCATGTCCTTATATATA [TGCATGCA_site84]” was tested, and the “gcPBM binding intensity (ln)” value was 6.9. With “ATATCATAAATTTATGCATGTTCTTTCTTCAACTCT [TGCATGCA_site992]” the “gcPBM binding intensity (ln)” value was 6.9. “AGTAGGCATATTGGTTGTACAAAAAAATTATGCACC [XGTACX_site8925]” was tested, and the “gcPBM binding intensity (ln)” value was 10.3. With “TTTTTTTTTTCTCTCGCACACATTTTTTAAAATGAG [CACACA_site2607]” the “gcPBM binding intensity (ln)” value was 7.38. “ATATATATATATGTTTATTTATTTGAACGATTGTGG [CACACA_negctrl_site828]” was tested, and the “gcPBM binding intensity (ln)” value was 9.36. With “ATATTTATATAGATGTGTACATAAATATAATAACAT [XGTACX_site1681]” the “gcPBM binding intensity (ln)” value was 7.15. With “GACTCTTAAAAAATTTGTACCCACATAAATAATATA [XGTACX_site4313]” the “gcPBM binding intensity (ln)” value was 7.34. For “AAAAATAAAATATATACACACATATATATATATATA [CACACA_site2943]”, the “gcPBM binding intensity (ln)” value was 9.57. “ACATATATATATATGTGTACATATTTATACAACAAT [XGTACX_site6660]” was tested, and the “gcPBM binding intensity (ln)” value was 7.5. With TTTTTAATTTTGTGGGTGCTTTCGTGTTATTATATA the “gcPBM binding intensity (ln)” value was 8.05. For “AGGAAATTTGTTATTGCACACAAATTTTTCTTTTTT [CACACA_site8732]”, the “gcPBM binding intensity (ln)” value was 6.78. With “AATGTCAGTATGCGAGGTACACGTATAAAAATTACA [XGTACX_site4109]” the “gcPBM binding intensity (ln)” value was 7.15. “TATTATAATAAACCTATACACACATAAATAAATAAA [GTGCAC_negctrl_site627]” was tested, and the “gcPBM binding intensity (ln)” value was 7.03. In the case of “TTTTACTAAATATATACACACATTATACAGATATAT [CACACA_site5765]”, the “gcPBM binding intensity (ln)” value is reported as 7.1. With “TACATAAATTAAAACACACACACACTAGAAAAAAAA [CACACA_site5278]” the “gcPBM binding intensity (ln)” value was 7.04. “TATATATATATACCAACACACATACATATATATATA [CACACA_site8530]” was tested, and the “gcPBM binding intensity (ln)” value was 9.43. “TAAAAAATAAAAATTGCACACTAAAAAATTACGCAC [CACACA_site9129]” was tested, and the “gcPBM binding intensity (ln)” value was 8. “TGTCACATAATTTATGCACACAATGATTATGCTTAA [CACACA_site2358]” was tested, and the “gcPBM binding intensity (ln)” value was 7.26. With “AAGTATAAATTAAAATGTACTTATAAAAAAAAAGAA [XGTACX_site7028]” the “gcPBM binding intensity (ln)” value was 7.12. “ACATATATTGTACATACACACCTATATAAATATCCT [CACACA_site7503]” was tested, and the “gcPBM binding intensity (ln)” value was 7.48. For “TATGTATGTATGTATGCATGTGTAACACCTAAATAT [TGCATGCA_site361]”, the “gcPBM binding intensity (ln)” value was 7.37. “CCATATTTCATTAATGAACACACAAAGAGGTATATA [CACACA_site8431]” was tested, and the “gcPBM binding intensity (ln)” value was 7.11. “ATCTCTACAAAGTGCACACACGTAAAAACATATATA [CACACA_site6046]” was tested, and the “gcPBM binding intensity (ln)” value was 10.8. In the case of “ATTTTCCTTTAATTATGTACTTATGTAATAATAATG [XGTACX_site2612]”, the “gcPBM binding intensity (ln)” value is reported as 6.92. For “TGTATGATTATGTTGTGTACGTAAAATATGAAAAAT [XGTACX_site1720]”, the “gcPBM binding intensity (ln)” value was 7.79. For “GCACACATATAATTAAACATATATTTGTATTATTTT [GTGCAC_negctrl_site327]”, the “gcPBM binding intensity (ln)” value was 6.99. “GTATCATAAAAGTATACACACATACATACATATGTA [CACACA_site5456]” was tested, and the “gcPBM binding intensity (ln)” value was 7.28. In the case of “TATCCTAATGCTACCACACACACAAAAACAAATAAT [CACACA_site2609]”, the “gcPBM binding intensity (ln)” value is reported as 7.5. With “AATATTTATGGGTGCACACAAACATACATATATATA [CACACA_site3395]” the “gcPBM binding intensity (ln)” value was 11.8. For “AAAAAAAAGAATAGAGCATGCAAAATATATGAAATA [TGCATGCA_site933]”, the “gcPBM binding intensity (ln)” value was 6.73. With “ATGTTGAAAGGAAAAAATAATAAAATCGATATATTA [CACACA_negctrl_site549]” the “gcPBM binding intensity (ln)” value was 6.72. In the case of “CCTTACTTCTTATAAAGTACCCAATGATATACATTA [XGTACX_site1554]”, the “gcPBM binding intensity (ln)” value is reported as 7. In the case of “TTTTAATGTATATTTTGTACGTATTATTAATATTCG [XGTACX_site8453]”, the “gcPBM binding intensity (ln)” value is reported as 6.99. In the case of “TAAAGATATAAATGCACACGTATTAAAAAAAAAATA [CACACA_site952]”, the “gcPBM binding intensity (ln)” value is reported as 7.4. In the case of “TTATCATTACATGAGTGTACATTATTATATTTTTTT [XGTACX_site7845]”, the “gcPBM binding intensity (ln)” value is reported as 6.84. For “ATATATTTTTTTTTTTGTACGTATATTTATATAATT [XGTACX_site8719]”, the “gcPBM binding intensity (ln)” value was 7.1. In the case of “GAAAGAAAGAAAGAAAGTACATATAAAAATATACAT [XGTACX_site7299]”, the “gcPBM binding intensity (ln)” value is reported as 6.67. “TCGTGTTTTAAAAAAATGAAGAAAAGTAAAAAAAAA [XGTACX_negctrl_site23]” was tested, and the “gcPBM binding intensity (ln)” value was 7. With “ATGATAGTAATTAATAGTACTTTTTTTGATACAAAA [XGTACX_site4288]” the “gcPBM binding intensity (ln)” value was 6.84. In the case of “TAATATGAATATATATGTACATACAATTTGTTATAT [XGTACX_site5815]”, the “gcPBM binding intensity (ln)” value is reported as 7.12. For “ATTAAATGTATGACTTGTACATAAAATAAAAAAAAA [XGTACX_site6555]”, the “gcPBM binding intensity (ln)” value was 6.96. “ATTAGTGACATTATTACACACAAAAGAAAACAGAAA [CACACA_site3984]” was tested, and the “gcPBM binding intensity (ln)” value was 7.25. For TGAATCTATATACAGGTGCGTAAAAAATAACTTATA, the “gcPBM binding intensity (ln)” value was 8.67. With “CAAGAATTAAAATAAAGTACAAAAGTAACAACTTTT [XGTACX_site1474]” the “gcPBM binding intensity (ln)” value was 7.11. With “AAAAAAAAGGAAAAGGGTACAAAACCATACTTACAT [XGTACX_site4783]” the “gcPBM binding intensity (ln)” value was 6.77. In the case of AGTATAAGCATTATTGTGCACATAATTATAATTTTT, the “gcPBM binding intensity (ln)” value is reported as 8.88. In the case of “AGTTTAAATTAAATTACACACTACGAATAATATATT [CACACA_site7811]”, the “gcPBM binding intensity (ln)” value is reported as 6.95. With “GTTGCAATTAACACTAGTACATATAAGTAGTTTATT [XGTACX_site2063]” the “gcPBM binding intensity (ln)” value was 6.86. In the case of “ATTGTTCTCCAAAAGTGTACGTATTATTTTTCTGGA [XGTACX_site1404]”, the “gcPBM binding intensity (ln)” value is reported as 7.3. In the case of “TATATATTAATAAATAGTACCCGTGGAATTTATATT [XGTACX_site5855]”, the “gcPBM binding intensity (ln)” value is reported as 6.95. “AATAATGAAACAGGAAAAAAATATTGTTAAAATGTA [XGTACX_negctrl_site400]” was tested, and the “gcPBM binding intensity (ln)” value was 7.04. For “TATTAATCTTTTTTTAAACAAAAAATTAAGCAAATT [CACACA_negctrl_site884]”, the “gcPBM binding intensity (ln)” value was 6.82. In the case of “AATTATTGTGAAGGGAAAACAAAAAAGTTTATAATT [CACACA_negctrl_site1337]”, the “gcPBM binding intensity (ln)” value is reported as 6.87. In the case of “AAGCGAATATATATCACACACAAAAAAATCAGACTA [CACACA_site2108]”, the “gcPBM binding intensity (ln)” value is reported as 6.9. “AACTAATAAAAAAAAAGTACACAATATGTAAATAAC [XGTACX_site5263]” was tested, and the “gcPBM binding intensity (ln)” value was 7.24.
